From the supplement of paper PMC9446081 come the findings set out here.

About 220 (0.56%) of roughly 39,000 compounds showed activity. The list shows a part of the results.
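Note: static incubation at 37 °C against the wild-type strain, values averaged over two biological replicates.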

The assay relates to Escherichia coli K-12 BW25113. Description: relative growth (OD600 normalised to plate interquartile mean) (fraction); higher = less growth inhibition, active = 0.2 or less. The following applies: 50 µM; LB; incubation time: overnight (16-24 h).
Turning to `C[C@H](CO)N1C[C@H](C)[C@H](CN(C)Cc2ccccc2)OCCCC[C@H](C)Oc2ccc(NC(=O)c3ccncc3)cc2C1=O`, the relative growth was inactive: 0.992.
As for `COc1ccc2c3c([nH]c2c1)[C@@H](CO)N(C[C@]13CCN(CC1)C(=O)c1ccccc1F)C(=O)Nc1ccc(cc1)F`, the figure is inactive: 1.02.
As for `C[C@H](CO)N1C[C@H](C)[C@H](CN(C)C(=O)c2cccc(F)c2)Oc2cc(C#CC3CC3)ccc2S1(=O)=O`, the figure is inactive: 1.02; as for `COc1ccc(S(=O)(=O)Nc2ccc3c(c2)CC(=O)N([C@H](C)CO)C[C@H](C)[C@H](CN(C)Cc2ccc(Oc4ccccc4)cc2)O3)cc1`, inactive: 1.01.
As for `C[C@H]1CN([C@@H](C)CO)C(=O)Cc2cc(NS(=O)(=O)c3ccc(F)cc3)ccc2O[C@@H]1CN(C)C(=O)Nc1cccc2ccccc12`, the relative growth is inactive: 1.
As to `COc1ccc([Si](C)(C)[C@H]2[C@H](CC(=O)N(CCO)Cc3ccccc3)O[C@@]3(C(=O)N(Cc4cccc(N5CCOC5=O)c4)c4ccccc43)[C@@H]2C)cc1`, the relative growth was inactive: 1.01.
As to `Cc1ccc(S(=O)(=O)Nc2cccc3c2O[C@@H](CN(C)C(=O)Nc2cccc4ccccc24)[C@@H](C)CN([C@@H](C)CO)C3=O)cc1`, the relative growth was inactive: 0.979.
`C[C@H]1CN([C@@H](C)CO)C(=O)Cc2cc(NC(=O)Cn3cnnn3)ccc2O[C@H]1CN(C)Cc1ccc2c(c1)OCO2`: the relative growth is inactive: 1.02.
As for `COc1ccc(NC(=O)Nc2cccc3c2O[C@H](CN(C)S(=O)(=O)c2cn(C)cn2)[C@H](C)CN([C@@H](C)CO)C3=O)cc1`, the figure is inactive: 0.985; as for `Cc1ccc2nc(/N=C/c3ccc(Cl)cc3Cl)sc2c1`, inactive: 0.96; as for `Cc1ccc(S(=O)(=O)N(C)C[C@@H]2OCCCC[C@H](C)Oc3ccc(NC(=O)Nc4c(C)noc4C)cc3C(=O)N([C@@H](C)CO)C[C@H]2C)cc1`, inactive: 0.999.
In the case of `S=C1SCN(Cc2ccccc2)CN1Cc1ccccc1` it was inactive: 0.95.
In the case of `COc1cccc(S(=O)(=O)N[C@H]2CC[C@H](CC(=O)NC3CCC3)O[C@H]2CO)c1` it was inactive: 0.967; in that of `COc1ccc(CN(C)C[C@@H]2Oc3ccc(NC(=O)CCN4CCOCC4)cc3C(=O)N([C@H](C)CO)C[C@@H]2C)cc1`, inactive: 0.976.
On to `O=C(C[C@H]1CC[C@@H](NS(=O)(=O)c2ccc(F)cc2)[C@@H](CO)O1)N1CCC(Cc2ccccc2)CC1`, for which the relative growth was inactive: 0.975.
As for `Cc1noc(C)c1NC(=O)N[C@@H]1CC[C@@H](CC(=O)N2CCN(C)CC2)O[C@@H]1CO`, the figure is inactive: 0.978; as for `C[C@@H]1CN([C@H](C)CO)C(=O)c2cc(NC(=O)Nc3ccccc3)ccc2O[C@@H](C)CCCCO[C@H]1CN(C)S(=O)(=O)c1ccc(Cl)cc1`, inactive: 1.03; as for `C[C@H](CO)N1C[C@H](C)[C@H](CN(C)C(=O)CCC(F)(F)F)OCCCC[C@H](C)Oc2ccc(NC(=O)Nc3ccccc3)cc2C1=O`, inactive: 0.992.
Consider `Cc1noc(C)c1S(=O)(=O)Nc1ccc2c(c1)CC(=O)N([C@@H](C)CO)C[C@H](C)[C@@H](CN(C)Cc1ccc3c(c1)OCO3)O2`, for which the relative growth is inactive: 1.01.
In the case of `C[C@@H]1CCCCO[C@H](CN(C)Cc2ccc(C(F)(F)F)cc2)[C@H](C)CN([C@H](C)CO)C(=O)c2cc(NS(=O)(=O)c3cccs3)ccc2O1` it was inactive: 1.03; in that of `O=C(C[C@H]1C=C[C@H](NC(=O)C2CCOCC2)[C@H](CO)O1)NCCc1cscn1`, inactive: 0.969; in that of `CCOC(=O)Cn1cc(F)c(=O)[nH]c1=O`, inactive: 1.06.
On to `CCC1C=C2C(=O)OC(=O)C2CC2=C(C(=O)OC2=O)C(O)C1CC` (configuration not stated), for which the relative growth is inactive: 0.96.
As for `COc1cccc(NC(=O)N(C)C[C@H]2Oc3ncc(C#Cc4cccnc4)cc3C(=O)N([C@H](C)CO)C[C@H]2C)c1`, the figure is inactive: 1.03; as for `COc1ccc(NC(=O)N(C)C[C@@H]2Oc3ccc(NS(=O)(=O)c4cn(C)cn4)cc3CC(=O)N([C@H](C)CO)C[C@@H]2C)cc1`, inactive: 0.992.
As for `CCN(CC)Cc1ccc(Nc2ccnc3cc(Cl)ccc23)cc1O.Cl.Cl`, the relative growth is inactive: 0.884.
As for `COc1ccc(NC(=O)Nc2ccc3c(c2)C(=O)N([C@@H](C)CO)C[C@H](C)[C@@H](CN(C)Cc2ccc4c(c2)OCO4)OCCCC[C@@H](C)O3)cc1`, the figure is inactive: 1; as for `Cc1ccc(S(=O)(=O)Nc2ccc3c(c2)C(=O)N([C@@H](C)CO)C[C@H](C)[C@H](CN(C)C(=O)NC2CCCCC2)OCCCC[C@H](C)O3)cc1`, inactive: 0.997.
On to `C[C@@H]1CN([C@H](C)CO)C(=O)CCCn2cc(nn2)CO[C@H]1CN(C)C(=O)Nc1ccccc1C(F)(F)F`, for which the relative growth was inactive: 0.99.
As to `C[C@H](CO)N1C[C@H](C)[C@H](CN(C)C(=O)c2ccccc2)OCCCC[C@H](C)Oc2ccc(NC(=O)CCCCCC(=O)Nc3ccccc3N)cc2C1=O`, the relative growth was inactive: 0.973.
As for `C[C@H](CO)N1C[C@H](C)[C@H](CN(C)C(=O)Nc2ccc(C(F)(F)F)cc2)Oc2c(NC(=O)Nc3cccc4ccccc34)cccc2C1=O`, the figure is inactive: 0.971; as for `CN1C(=O)c2cc(NS(C)(=O)=O)ccc2OC[C@H]2O[C@H](CC(=O)N3CCOCC3)CC[C@@H]21`, inactive: 1.03; as for `COc1ccc(OCc2c(-c3ccccc3)nnn2CC(=O)NS(=O)(=O)c2ccc(F)cc2F)cc1`, inactive: 0.966.
In the case of `COc1ccc2c3c([nH]c2c1)[C@H](CO)N(C[C@]13CCN(CC1)C(=O)c1cnccn1)C(=O)c1cnccn1` it was inactive: 1.01; in that of `Cc1noc(C)c1S(=O)(=O)Nc1cccc2c1O[C@H](CN(C)S(=O)(=O)c1ccc(F)cc1)[C@H](C)CN([C@@H](C)CO)C2=O`, inactive: 1.02; in that of `Cc1ccc(S(=O)(=O)N(C)C[C@H]2OCCCC[C@H](C)Oc3ccc(NS(=O)(=O)c4ccc(Cl)cc4)cc3C(=O)N([C@H](C)CO)C[C@H]2C)cc1`, inactive: 1.03.
In the case of `C[C@@H]1CCCCO[C@@H](CN(C)Cc2ccccc2)[C@@H](C)CN([C@@H](C)CO)C(=O)c2cc(NC(=O)Nc3cccc4ccccc34)ccc2O1`, the relative growth was inactive: 0.998.
